Measurements reported in paper PMC4336329 (PLoS ONE, 2015).
The campaign covered roughly 310,000 compounds. About 2,200 (0.71%) showed an effect of 50% or more. The effect is printed as a negative number. The list shows a part of the results.

biological target: human ether-à-go-go-related gene (hERG) potassium channel (human, UniProt Q12809); assay: primary screen, population patch clamp on CHO cells stably expressing hERG
Sequence (Q12809 whole entry, looked up): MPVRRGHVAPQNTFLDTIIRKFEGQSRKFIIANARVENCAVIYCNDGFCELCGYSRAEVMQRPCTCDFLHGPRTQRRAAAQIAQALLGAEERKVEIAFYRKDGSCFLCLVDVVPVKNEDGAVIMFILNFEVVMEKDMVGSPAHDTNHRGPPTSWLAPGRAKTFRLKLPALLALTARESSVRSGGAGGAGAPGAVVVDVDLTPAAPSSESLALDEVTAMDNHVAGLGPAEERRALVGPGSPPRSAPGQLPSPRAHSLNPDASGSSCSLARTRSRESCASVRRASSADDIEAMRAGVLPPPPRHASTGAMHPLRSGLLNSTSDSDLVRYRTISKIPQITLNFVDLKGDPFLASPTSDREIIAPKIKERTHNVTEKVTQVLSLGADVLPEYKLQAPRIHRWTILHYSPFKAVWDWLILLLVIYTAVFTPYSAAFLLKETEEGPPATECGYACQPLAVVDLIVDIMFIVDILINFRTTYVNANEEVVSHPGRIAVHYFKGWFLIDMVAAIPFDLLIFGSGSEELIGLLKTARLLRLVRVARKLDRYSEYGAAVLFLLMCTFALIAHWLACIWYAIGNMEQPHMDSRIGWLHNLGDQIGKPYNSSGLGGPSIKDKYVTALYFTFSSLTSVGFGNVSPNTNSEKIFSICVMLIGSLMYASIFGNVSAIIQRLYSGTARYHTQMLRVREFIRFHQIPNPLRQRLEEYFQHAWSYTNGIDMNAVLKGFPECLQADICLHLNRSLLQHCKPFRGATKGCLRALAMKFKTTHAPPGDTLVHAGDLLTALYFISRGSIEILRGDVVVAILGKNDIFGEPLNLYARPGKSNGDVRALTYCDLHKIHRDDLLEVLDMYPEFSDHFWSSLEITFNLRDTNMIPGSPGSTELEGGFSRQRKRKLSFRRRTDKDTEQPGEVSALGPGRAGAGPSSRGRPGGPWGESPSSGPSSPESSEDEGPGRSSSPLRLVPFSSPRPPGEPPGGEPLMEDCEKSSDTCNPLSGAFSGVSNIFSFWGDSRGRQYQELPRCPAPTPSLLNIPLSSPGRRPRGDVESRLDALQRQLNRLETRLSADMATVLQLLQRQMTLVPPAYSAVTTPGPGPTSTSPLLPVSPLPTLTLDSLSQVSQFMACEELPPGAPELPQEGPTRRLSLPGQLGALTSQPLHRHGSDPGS

SMILES	hERG current change (%, negative = inhibition) at 1uM [%]
COc1ccccc1NNC(=O)C(O)(c1ccccc1OC)c1ccccc1OC	15.9
CCN(CC(=O)Nc1c(F)cccc1F)C(=O)c1cccc(-n2cccc2)c1	-8.02
O=C(CSc1ccc(C(F)(F)F)cc1[N+](=O)[O-])N1CCOCC1	8.86
COCCN(C(=O)c1cc(Cl)nc2ccccc12)c1c(N)n(Cc2ccccc2)c(=O)[nH]c1=O	10.8
CC(C)(C)c1ccc(C(=O)Nn2cnnc2)cc1	17
CCCCNC(=S)Nc1ccc([N+](=O)[O-])cc1	10.4
CCC1CCCCN1CCN1C(=O)C2C(C(=O)Nc3ccc(OC)cc3)C3C=CC2(O3)C1C(=O)NC1CCCCC1 (stereo not drawn)	10.6
CCn1ncc(CN2CCN(Cc3cccc(OC)c3)C(CCO)C2)c1C (stereo not drawn)	6.94
CN=C1SC(CC(=O)Nc2ccc(F)cc2F)C(=O)N1/N=C(\C)c1cccc(OCC(=O)O)c1 (stereo not drawn)	8.03
Cc1cc(C)nc(N/N=C/c2sccc2C)n1	7.82
COc1ccc(/C=N/NC(=O)C[n+]2ccccc2)c(OC)c1.[Cl-]	7.85
CC1CCC(NC(=O)C2c3ccccc3C(=O)N2Cc2cccs2)CC1 (stereo not drawn)	9.72
CN(CCOc1ccccc1)C(=O)c1ccc(F)c(S(=O)(=O)N2CCOCC2)c1	9.03
CCOc1cc(N2CCOCC2)c(OCC)cc1NC(=O)c1ccc(OCc2c(C)noc2C)c(OC)c1	15.1
CCc1c(O)nc(SC2CC(=O)N(c3ccc(F)c(Cl)c3)C2=O)[nH]c1=O (stereo not drawn)	10.5
CC1CCCCC1NC(=O)COC(=O)COc1ccc(Cl)cc1 (stereo not drawn)	-1.93
O=[N+]([O-])c1ccc(-n2nnnc2-c2ccccc2)c([N+](=O)[O-])c1	15.2
CCCCC(=O)Nc1cccc(-c2nn3c(C)nnc3s2)c1	-1.23
CN(C(=O)COC(=O)Cc1c(Cl)cccc1Cl)C1CCS(=O)(=O)C1 (stereo not drawn)	4.6

SMILES	hERG current change (%, negative = inhibition) at 1uM [%]
CC1CN(C(=O)c2ccncc2)CC(C)O1 (stereo not drawn)	8.91
CC(=O)N1CCN(C(=O)CCc2nc3ccccc3c(=O)[nH]2)CC1	6.24
O=S(=O)(c1ccccc1Cl)N1CCCC1c1nc(-c2cccc(Cl)c2)no1 (stereo not drawn)	-0.117
Cc1cccc2c1N(CC(=O)OC(C)C)C(=O)C2=O	13.1
O=C(O)c1ccccc1N(Cc1ccccc1)C(=O)CO/N=C/c1ccccc1	3.94
COc1ccc(CNC(=O)/C(C)=C\C(=O)O)cc1	10.7
O=C(Nc1nc2c(Br)cc(Br)cc2c(=O)s1)C1CCC1	11
Cc1cccc(OCC(=O)NCCNC(=O)c2ccccn2)c1	23.9
Cc1cc(/C=C2\SC(=O)N(C)C2=O)c(C)n1-c1ccc(S(N)(=O)=O)cc1	14.9
Cc1ccc(S(=O)(=O)NC(=O)N2CCCC(C)(C)C2)cc1	9.36
O=C(CN1CC=C(c2ccccc2)CC1)NC(=O)NC1CCCCC1	5.7
Cc1ccc(NC(=O)c2nc[nH]c2C(=O)N[C@@H](CCCCNC(=O)OC(C)(C)C)C(=O)OC(C)(C)C)cc1	5.01
O=C(NCc1ccco1)c1ccc(COc2ccc(Cl)cc2)cc1	-0.588
CN(C)S(=O)(=O)c1ccc(C(=O)Nc2ccccc2F)cc1	4.74
COc1ccc(NC(=O)N2CCCC2C(=O)NCc2ccccc2Cl)cc1 (stereo not drawn)	10.8
COc1ccc(/C=N/Nc2nc3ccccc3[nH]2)c(OC)c1OC	15.1
Cc1ccc(C(=O)NCC(=O)Nc2ccccc2C(F)(F)F)cc1	7.76
COc1ccc(NC(=O)CCN2CCN(C/C=C/c3ccccc3)CC2)cc1	-37.8
CCOc1ccc(/C=N/Nc2nc(N3CCCC3)nc(N3CCCC3)n2)cc1OC	6.01

SMILES	hERG current change (%, negative = inhibition) at 1uM [%]
CCCCNC(=O)c1cc(-c2ccc(F)cc2)on1	-13.6
COc1ccc(N(CC(=O)NCc2ccc(F)cc2)S(=O)(=O)c2c(C)n[nH]c2C)cc1	5.8
CCOc1ccc(NC(=O)CN2CCN(CC(=O)Nc3ccc(C(=O)OC)cc3)CC2)cc1	-48
CCSc1nnc(NC(=O)c2ccc(C)cc2)s1	10.3
O=C(CCSc1ccccn1)c1ccccc1	8.49
CCOC(=O)CNC(=O)CSc1nc(-c2ccc(C)cc2)ns1	10.4
O=C(Nc1ccc(Br)cc1)Nc1ccccc1Cl	8.2
O=c1c2cc(Br)cc(Br)c2oc2nc3n(c(=O)c12)CCCS3	-1.16
Cc1cc(C)cc(NC(=O)CSc2nnc(-c3ccc(S(=O)(=O)N4CCCC4)cc3)o2)c1	1.66
Cc1ccccc1OCC(=O)NNC(=O)CSc1nc(N)cc(N)n1	8.37
Cc1nn(-c2ccccc2Cl)c2sc(C(=O)Nc3nnc(C4CC4)s3)cc12	14.7
COc1ccc(CCNC(=O)CCNC(=O)c2ccc(Cl)cc2)cc1OC	7.25
C/C(CC(=O)Nc1cccc(F)c1)=N\NC(=O)c1ccncc1	17.4
CCOC(=O)c1cccc(NC(=O)CSc2nc3ccccc3c(=O)n2CCOC)c1	-17.8
Cc1cc(O)c(N=Cc2cc3c(cc2[N+](=O)[O-])OCO3)cc1C	15.8
O=C(COc1ccc(Cl)cc1)NCCCNC(=O)c1ccccn1	1.94
CN(C)S(=O)(=O)c1ccc(N2CCCC2)c(C(=O)NCC2CCCCC2)c1	15.1
O=C(COC(=O)Cc1ccc(Cl)c(Cl)c1)NCc1ccco1	8.65
CN(CC(=O)N1CCOCC1)S(=O)(=O)c1ccc2ccccc2c1	15.9
